# Measurements as given in PubChem BioAssay AID1671193 (National Center for Advancing Translational Sciences (NCATS), 2021).
# Among all 150,000 compounds or so, about 180 (0.12%) were called active. Inconclusive means that the source gave no clear call. Such entries were picked first, then a sample of the others. Calls come from the whole dose curve; as a rule, active = well fitted cell-killing curve with a large enough effect; inconclusive = small, poorly fitted or top-dose-only effect, or effect the other way; inactive = flat fitted curve, though single readings scatter. Potencies beside an inconclusive call are fits to weak or partial responses and may not hold up.
# Test: GF-AFC viability counterscreen for inhibitors of alpha-synuclein gene (SNCA) expression; note: nearly all actives have a fitted effect of over 30% in size;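 for activity change, negative = cytotoxicity: 0% = DMSO-treated cells and -100% = medium-only wells without cells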
# Conditions: HEK-293-SNCA-luc viability, GF-AFC fluorescence, 24 h; activity change, negative = cytotoxicity: at 57.1 µM (top of the series) unless noted
# Outline: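 HEK-293-SNCA-luc cells (1500/well) plated 24 h, then exposed 24 h to a dilution series; GF-AFC added 30 min at 37C, fluorescence 405/540 nm; normalised to medium-only and DMSO wells, Hill fit.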
# Potency is the fitted concentration of half-maximal effect; tags give direction and shape of the fitted curve.
Structure (SMILES),"activity change, negative = cytotoxicity",Potency
CC(C)Nc1ccc(-c2nc(-c3ccccn3)no2)cc1[N+](=O)[O-],inactive: -12.3%,–
OC(c1ccc2c(c1)CCO2)c1nc(Nc2cccc(C(F)(F)F)c2)n[nH]1 (centres undefined),inactive: 1.71% [at 87.6 µM],–
CCCCCN1C(C(=O)c2ccccc2)=C(NC(C)=O)c2ccccc2S1(=O)=O,–,"inconclusive: 17.8 µM [cytotoxic, partial curve, poor fit]"
COc1ccc(-c2nc3cnc(N4CCN(C)CC4)nc3n(CCc3ccccc3)c2=O)cc1,–,"inconclusive: 10 µM [rising, partial curve]"
CN1CCN(c2cc(=O)c3ccnc(-c4cccc(F)c4)c3o2)CC1,inactive: -9.32% [at 87.6 µM],–
CC(C)N(Cc1ccccc1)C(=O)CN1C(=O)COc2ccc(S(=O)(=O)N3CCCCCC3)cc21,–,"inconclusive: 22.4 µM [cytotoxic, single point]"
Cc1nc2cnc(Oc3ccccc3)nc2n(C)c1=O,–,"inconclusive: 2.24 µM [cytotoxic, partial curve, poor fit]"
O=c1c(-c2cccs2)nc2cnc(N3CCOCC3)nc2n1CCc1ccccc1,–,"inconclusive: 7.94 µM [rising, partial curve]"
Cc1ccc(C(=O)N2CCCC3(CCNCC3)CC2)cc1Cl,–,"inconclusive: 25.1 µM [cytotoxic, partial curve, poor fit]"
COc1cccc(Cn2c(C)c(CNCc3ccccc3Cl)c(C(=O)O)c2C)c1,inactive: -1.95%,–
COc1cccc(C(=O)N2CCc3nc(C4CC4)nc(-c4ccc(O)cc4)c3CC2)c1,–,"inconclusive: 14.1 µM [cytotoxic, partial curve, poor fit]"
CCOC(=O)c1cnc2ccc(C(=O)OC)cc2c1Nc1ccc(N2CCOCC2)cc1,–,"inconclusive: 31.6 µM [cytotoxic, single point]"
Cc1ccc(-c2ccc3nnc(CNC(=O)Cc4ccc(F)cc4)n3n2)cc1C,inactive: 5.23%,–
O=C(N1CCCC1)N1CCN(C2CCNCC2)C(=O)C1,inactive: -9.71%,–
O=C(NCCc1ccc(Cl)cc1)c1nc(-c2cccnc2)c2ccccn12,–,"inconclusive: 28.2 µM [cytotoxic, single point]"
CC(C)(C)c1cc(C(C)(C)C)c2oc(=O)c(-c3nc4ccc(C(=O)O)cc4[nH]3)cc2c1,–,"inconclusive: 3.55 µM [rising, full curve, poor fit]"
Cc1nc(CC(=O)N2CC[C@@H](NC(=O)c3cnccn3)[C@H](O)C2)cs1,inactive: 1.55%,–
COc1ccc(C(=O)N2CCC3(CC2)CC(CN2CCOCC2)N(C)C3)cc1F (centres undefined),inactive: 10.4%,–
COc1cccc(CN2CCCC(c3nc(-c4cnccn4)no3)CCNC(=O)CC2)c1OC (centres undefined),–,"inconclusive: 2.51 µM [cytotoxic, partial curve, poor fit]"
CC(=O)N1CCC2(CC1)OC(=O)N(Cc1ccccc1)C2(C)c1ccccc1 (centres undefined),inactive: 8.14% [at 87.6 µM],–
COc1ccc(NC(=O)C2C[C@H](C)CC[C@H]2C(C)C)cc1 (some centres undefined),–,"inconclusive: 37.7 µM [cytotoxic, single point]"
O=C(C1CCN([S+](=O)([O-])c2cccc(C(F)(F)F)c2)CC1)N1CCC(N2CCOC2=O)CC1,inactive: 4.66%,–

Structure (SMILES),"activity change, negative = cytotoxicity",Potency
Cc1ccc(CCC(=O)N2CC[C@@](O)(C3CCOCC3)[C@H](C)C2)cc1,–,"inconclusive: 10 µM [rising, partial curve, poor fit]"
COc1ccc(NC(=O)N2Cc3[nH]cnc3C[C@H]2c2nc(-c3ccc(OC)cc3)no2)cc1,–,"inconclusive: 2.51 µM [cytotoxic, full curve, poor fit]"
N#Cc1cccc(CN2Cc3[nH]cnc3C[C@H]2c2nc(-c3ccc(OC(F)(F)F)cc3)no2)c1,inactive: -18.2%,–
Cc1ccc(CN2CCc3nc(C(=O)Nc4cccnc4)oc3CC2)cc1,inactive: -7.97% [at 87.6 µM],–
COc1ccc(C(=O)NCC(c2cccs2)S(=O)(=O)c2cccs2)cc1 (centres undefined),–,"inconclusive: 17.8 µM [cytotoxic, partial curve, poor fit]"
Cc1ccc(S(=O)(=O)Nc2nc3n(n2)C(c2ccc(Cl)cc2)C=C(c2ccccc2)N3)cc1 (centres undefined),–,"inconclusive: 22.4 µM [rising, partial curve]"
CCCn1c2ccc(C)cc2c2nnc(SCCN3CCCCC3)nc21,–,"inconclusive: 39.8 µM [cytotoxic, single point]"
CCOc1ccc(C(=O)Nc2ccc3ncnc(N4CCCCC4)c3c2)cc1,–,"inconclusive: 39.8 µM [cytotoxic, single point]"
CCCN(C(=O)Cn1nc(Cc2cccnc2)c2ccccc2c1=O)c1ccc(C(C)C)cc1,–,"inconclusive: 17.8 µM [cytotoxic, single point]"
CC(C)c1ccc(CN2CC[C@@H]3OCC(=O)N(Cc4ccccc4)[C@H]3CC2)cc1,–,"inconclusive: 56.2 µM [cytotoxic, single point]"
CC(C(=O)N1CCCC1)N1C(=O)COc2ccc(C(=O)COc3ccc(Cl)cc3)cc21 (centres undefined),–,"inconclusive: 10 µM [cytotoxic, partial curve, poor fit]"
CCNc1ncc2nc(-c3ccc(F)cc3)c(=O)n(C[C@H]3CCCO3)c2n1,–,"inconclusive: 11.2 µM [rising, partial curve]"
COc1ccc(C(=O)N2CCc3ccc(C(=O)NCc4ccccn4)cc32)cc1,inconclusive: -30.3%,–
Cc1ccc(-c2nc3scc(CCNS(=O)(=O)c4c(C)noc4C)n3n2)cc1,–,"inconclusive: 7.08 µM [cytotoxic, partial curve]"
O=C(NCC1CN(C(=O)Cc2cccc(OC(F)(F)F)c2)CC12CN(c1ccccc1)C2)Nc1ccccc1 (centres undefined),–,"inconclusive: 35.5 µM [cytotoxic, partial curve, poor fit]"
NC[C@@](O)(c1ccc(Cl)cc1)c1ccc(-c2cn[nH]c2)cc1,–,active: 23.8 µM
Cc1nn(-c2ccccc2[N+](=O)[O-])c(C)c1[C@@H]1C=C[C@@H](NCc2ccco2)C1,–,"inconclusive: 50.1 µM [cytotoxic, single point]"
CCOc1cc2ncc(C#N)c(Nc3ccc(OCc4ccccn4)c(Cl)c3)c2cc1NC(=O)C=CCN(C)C,–,"inconclusive: 30.4 µM [cytotoxic, single point]"
CC(=O)NC1(C)CN(Cc2ccc(-c3cccc(F)c3)nc2)C1,inactive: 6.22% [at 87.6 µM],–
COCCC(=O)N1CCCCC1c1noc(COc2ccc(C)cc2)n1 (centres undefined),inactive: 6.46%,–
CC(C)(N)C(=O)NC1CCCN(C2Cc3ccccc3C2)C1 (centres undefined),–,"inconclusive: 12.6 µM [cytotoxic, partial curve, poor fit]"
Cc1nc(-c2cccc(Cl)c2)n(CC(=O)Nc2ccc(C(F)(F)F)cc2)c(=O)c1CCO,–,"inconclusive: 35.5 µM [cytotoxic, single point]"

Structure (SMILES),"activity change, negative = cytotoxicity",Potency
COC(=O)c1ccc2nc(C[C@@H]3C[C@@H](C(C)C)[C@H](CNS(=O)(=O)c4ccccc4)C=C3C)[nH]c2c1,–,"inconclusive: 39.8 µM [cytotoxic, single point]"
CCc1ccc(C(=O)c2cn(Cc3ccccc3)c3cc(OC)c(OC)cc3c2=O)cc1,–,"inconclusive: 7.94 µM [cytotoxic, partial curve, poor fit]"
Cc1ccc(-c2noc([C@@H]3Cc4nc[nH]c4CN3Cc3ccc(CO)o3)n2)cc1,inactive: -1.53% [at 87.6 µM],–
O=C1CN(Cc2ccc(-c3cc(F)cc(F)c3)cc2)CCN1c1nccc(Cl)n1,inactive: -0.119%,–
COc1cncc(-c2cn(C)c(=O)n3cc(CNc4ccccc4)nc23)c1,inactive: -6.67% [at 87.6 µM],–
O=C(Cc1ccc(F)cc1)N1CCC2(CC1)CCN(Cc1cccs1)c1ccccc1O2,–,"inconclusive: 14.1 µM [cytotoxic, partial curve, poor fit]"
CC1=C[C@@H](CN(C)Cc2cccnc2)[C@H](C(C)C)C[C@H]1Cc1nnc(-c2ccc([N+](=O)[O-])cc2)o1,–,"inconclusive: 39.8 µM [cytotoxic, single point]"
COc1ccc(CNC[C@H]2O[C@H](Cc3cc(-c4ccc(OC)cc4)on3)CC[C@@H]2O)cc1,inactive: 3.22%,–
O=C(c1ccccc1F)N1CCn2ncc(C(=O)N3CCOCC3)c2C1,–,"inconclusive: 8.91 µM [cytotoxic, single point]"
C[S+](=O)([O-])Nc1cccc(Nc2cnc3ccc(-c4ccc(F)cc4)nn23)c1,inactive: -5.6% [at 87.6 µM],–
N#Cc1cccc(N2CCC3(CC(=O)NC3=O)C2)n1 (centres undefined),inactive: 3.82%,–
COc1ccc(Oc2ncc3ncc(=O)n(Cc4cccs4)c3n2)cc1,–,"inconclusive: 12.6 µM [cytotoxic, partial curve, poor fit]"
CC(C)c1ccc(Nc2c(-c3ccsc3)nc3ccc(Cl)cn23)cc1,inactive: 9.76%,–
Cc1nc(CN(C)Cc2nc(-c3cccc(Cl)c3)oc2C)no1,inactive: 14.3%,–
O=C([C@@H]1C[C@H](F)CN1S(=O)(=O)c1ccccc1)N1CCOCC1,–,"inconclusive: 31.6 µM [cytotoxic, single point]"
COc1ccc(C(=O)Nc2ccc(-c3noc([C@@H]4CCCN4Cc4cnc5ccccc5c4)n3)cn2)cc1,–,"inconclusive: 39.8 µM [cytotoxic, single point]"
CCN(CC)CCNC(=O)c1c(C)[nH]c(C=C2C(=O)Nc3ccc(F)cc32)c1C,–,"inconclusive: 2.78 µM [cytotoxic, full curve]"
CC#CCn1c(N2CCC[C@@H](N)C2)nc2c1c(=O)n(Cc1nc(C)c3ccccc3n1)c(=O)n2C,–,"inconclusive: 27.1 µM [cytotoxic, single point]"
CC(C)CCn1c(=O)c2sccc2n2c(CCCC(=O)Nc3ccc(F)c(Cl)c3)nnc12,–,"inconclusive: 14.1 µM [cytotoxic, partial curve, poor fit]"
Clc1ccc(C2Cn3nnc(-c4nc(-c5cccc(Br)c5)no4)c3CO2)cc1 (centres undefined),–,"inconclusive: 3.55 µM [rising, full curve, poor fit]"
